The values below come from the supplement of paper PMC9446081.

Each structure is given as a SMILES string. The campaign covered roughly 39,000 compounds. About 220 (0.56%) showed activity. This is one part of the list.
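Also: static incubation at 37 °C against the wild-type strain, values averaged over two biological replicates.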

The test system of this assay is Escherichia coli K-12 BW25113. The assay can be described thus: relative growth (OD600 normalised to plate interquartile mean) (fraction); higher = less growth inhibition, active = 0.2 or less. As to conditions: 50 µM; LB; incubation time: overnight (16-24 h).
In the case of `COc1ccc(NC(=O)N(C)C[C@@H]2OCc3ccccc3-c3c(n(C)c4ccccc34)C(=O)N([C@@H](C)CO)C[C@H]2C)c(OC)c1`, the relative growth was inactive: 0.978.
As for `O=C(C[C@@H]1C[C@H]2c3cc(NS(=O)(=O)c4ccc(F)cc4)ccc3O[C@H]2[C@H](CO)O1)NCc1cccc(F)c1`, the relative growth was inactive: 1.05.
On to `NC(=O)Cc1ccc(O)cc1`, for which the relative growth was inactive: 0.97.
Under `CO[C@H]1CN(C)C(=O)c2ccc(NS(=O)(=O)c3cn(C)cn3)cc2OC[C@@H](C)N(Cc2cccc(F)c2)C[C@@H]1C` stands inactive: 1.01; under `CN1CC2(CCC1=O)CCN(C(=O)c1cc(=O)n(C)c(=O)n1C)CC2`, inactive: 1.03.
Under `O=C(CCCCCNC(=O)OCc1ccc(CO[C@H]2C[C@@H](c3ccc(C(F)(F)F)cc3)C=C(C(=O)N3CCN(Cc4ccc5c(c4)OCO5)CC3)O2)cc1)NO` stands inactive: 0.983; under `COc1ccc(CN(C)C[C@@H]2OCCCC[C@H](C)Oc3ccc(NC(=O)c4ccccc4)cc3C(=O)N([C@H](C)CO)C[C@@H]2C)cc1`, inactive: 1.
Under `C[C@@H]1CN([C@@H](C)CO)C(=O)c2cccc(NC(=O)Nc3ccc(C(F)(F)F)cc3)c2O[C@@H]1CN(C)C(=O)Nc1ccccc1` stands inactive: 0.972; under `CCCNC(=O)c1cc2c(c(-c3cccc(-c4cccc(OC)c4)c3)n1)[C@@H](CCO)N([S@](=O)C(C)(C)C)C2`, inactive: 1.02.
Regarding `C[C@@H]1CN([C@@H](C)CO)C(=O)c2cccc(NS(=O)(=O)c3ccc(F)cc3)c2O[C@H]1CN(C)CC1CC1`, the relative growth was inactive: 1.02.
On to `Cc1noc(C)c1S(=O)(=O)Nc1ccc2c(c1)C(=O)N([C@@H](C)CO)C[C@H](C)[C@@H](CN(C)Cc1ccc3c(c1)OCO3)O2`, for which the relative growth was inactive: 0.995.
With `CC(=O)N[C@@H]1CC(=O)N(c2ccccc2)C1`, the relative growth is inactive: 0.976.
Then `Cc1cccc[n+]1C`, with inactive: 0.999.
Under `C[C@@H]1CN([C@H](C)CO)C(=O)c2cc(NC(=O)C3CCCCC3)ccc2O[C@@H](C)CCCCO[C@H]1CN(C)C(=O)C1CCCCC1` stands inactive: 0.988.
Then `CO[C@H]1CN(C)C(=O)c2cc(NS(=O)(=O)c3ccccc3)ccc2OC[C@H](C)N(C(=O)NC(C)C)C[C@@H]1C`, with inactive: 1.01; and `O=c1[nH]cc(NCc2ccccc2)c(=O)[nH]1`, with inactive: 1.04.
`CN(C)CCc1cc(Br)c(OCCCNC(=O)/C=C/c2cc(Br)c(OCCN3CCCCC3)c(Br)c2)c(Br)c1`: the relative growth is inactive: 0.975.
Under `C[C@H](CO)N1C[C@H](C)[C@H](CN(C)Cc2ccc(-c3ccccc3)cc2)Oc2c(NC(=O)Nc3cccc4ccccc34)cccc2C1=O` stands inactive: 1.01; under `C[C@@H]1CN([C@H](C)CO)C(=O)Cc2cc(NS(=O)(=O)c3cn(C)cn3)ccc2O[C@H]1CN(C)CC1CCCCC1`, inactive: 1.
Under `C[C@@H]1CCCCO[C@@H](CN(C)C(=O)Nc2ccc3c(c2)OCO3)[C@H](C)CN([C@H](C)CO)C(=O)c2cc(NS(=O)(=O)c3ccc(Cl)cc3)ccc2O1` stands inactive: 1.04; under `CNC(=O)c1cc(N)ccc1F`, inactive: 1.04; under `COc1ccc(NC(=O)Nc2ccc3c(c2)CC(=O)N([C@@H](C)CO)C[C@@H](C)[C@@H](CN(C)S(=O)(=O)c2cn(C)cn2)O3)cc1`, inactive: 1.01.
Then `COc1ccc(S(=O)(=O)Nc2ccc3c(c2)C(=O)N([C@H](C)CO)C[C@@H](C)[C@@H](CN(C)C(=O)Nc2cccc4ccccc24)OCCCC[C@@H](C)O3)cc1`, with inactive: 1.01; and `C[C@@H]1CN([C@H](C)CO)C(=O)c2cc(NC(=O)CCCN(C)C)ccc2O[C@@H]1CN(C)S(=O)(=O)c1cccs1`, with inactive: 1.01.
`CC[C@@H]1OC(=O)C[C@@H](O)[C@H](C)[C@@H](O[C@@H]2O[C@H](C)[C@@H](O)[C@H](N(C)C)[C@H]2O)[C@@H](CCN2C[C@H](C)C[C@H](C)C2)C[C@@H](C)C(=O)/C=C/C(C)=C\[C@@H]1CO[C@@H]1O[C@H](C)[C@@H](O)[C@@H](OC)[C@H]1OC`: the relative growth was inactive: 0.767.
Then `C=CCOC(=O)[C@H]1[C@@H]2C(=O)O[C@@H](c3ccccc3)[C@@H](c3ccccc3)N2[C@@H](c2ccc(OCCOC(=O)[C@H]3C[C@H]4C(=O)N[C@@H](CCCCN(C)C)C(=O)N4[C@H]3c3ccc(O)cc3)cc2)[C@]12C(=O)Nc1ccc(I)cc12`, with inactive: 0.965; and `C[C@@H]1CN([C@@H](C)CO)C(=O)c2cc(C#Cc3cccnc3)cnc2O[C@H]1CN(C)S(=O)(=O)c1ccccc1F`, with inactive: 1.
Under `C[C@H]1CN([C@@H](C)CO)C(=O)Cc2cc(NC(=O)C3CC3)ccc2O[C@@H]1CN(C)S(=O)(=O)c1ccc(F)cc1` stands inactive: 1.03.
Turning to `C[C@@H]1CN([C@@H](C)CO)C(=O)c2cc(NC(=O)CCC(F)(F)F)ccc2O[C@@H](C)CCCCO[C@@H]1CN(C)C(=O)Nc1cccc2ccccc12`, the relative growth was inactive: 1.01.
As to `COc1ccc(NC(=O)Nc2ccc3c(c2)CC(=O)N([C@H](C)CO)C[C@H](C)[C@@H](CN(C)Cc2ccc(C(=O)Nc4ccccc4N)cc2)O3)cc1`, the relative growth is inactive: 1.01.
Then `COc1ccc(S(=O)(=O)N(C)C[C@H]2Oc3ccc(NC(=O)CCC(F)(F)F)cc3CC(=O)N([C@@H](C)CO)C[C@@H]2C)cc1`, with inactive: 0.985; and `Nc1c[n+](N2CCOCC2)no1`, with inactive: 0.996; and `Cc1cc2n(c(=O)c1C(N)=O)CCO2`, with inactive: 1.02.
Then `O=C1OCc2cc(-n3cnnn3)ccc21`, with inactive: 0.975.
`C[C@@H]1CN([C@H](C)CO)C(=O)c2cccc(NC(=O)c3cnccn3)c2O[C@@H]1CN(C)Cc1ccc2c(c1)OCO2`: the relative growth is inactive: 0.997.
For the molecule `Cc1noc(C)c1S(=O)(=O)N(C)C[C@H]1Oc2ccc(NC(=O)Cc3cn(C)c4ccccc34)cc2CC(=O)N([C@H](C)CO)C[C@H]1C`, the relative growth was inactive: 0.953.
Then `Cc1ccc(S(=O)(=O)Nc2ccc3c(c2)C(=O)N([C@@H](C)CO)C[C@@H](C)[C@H](CN(C)C(=O)Nc2c(C)noc2C)OCCCC[C@H](C)O3)cc1`, with inactive: 1.03; and `NC(=O)c1nnc2ccc(Cl)cc2c1N`, with inactive: 1.02; and `Cc1ccc(S(=O)(=O)Nc2ccc3c(c2)C(=O)N([C@@H](C)CO)C[C@H](C)[C@H](CN(C)C(=O)NC2CCCCC2)OCCCC[C@@H](C)O3)cc1`, with inactive: 0.993.
Under `C[C@@H]1CN([C@@H](C)CO)C(=O)c2cc(NC(=O)Nc3ccc(F)cc3)ccc2O[C@@H]1CN(C)Cc1ccc(Oc2ccccc2)cc1` stands inactive: 1; under `Cc1ccc(S(=O)(=O)Nc2ccc3c(c2)C(=O)N([C@H](C)CO)C[C@@H](C)[C@@H](CN(C)Cc2ccc(-c4ccccc4)cc2)O3)cc1`, inactive: 1.04.
Then `C[C@H]1CN([C@@H](C)CO)C(=O)Cc2cc(NS(=O)(=O)c3ccc(F)cc3)ccc2O[C@@H]1CN(C)Cc1ccc(-c2ccccc2)cc1`, with inactive: 0.993; and `CN(C)CCCNC(=O)C[C@@H]1CC[C@H]2[C@H](COc3ccc(NC(=O)NC4CCCC4)cc3C(=O)N2C)O1`, with inactive: 1.01.
In the case of `Cc1ccc(S(=O)(=O)N(C)C[C@@H]2OCCCC[C@H](C)Oc3ccc(NC(=O)Cc4ccccc4)cc3C(=O)N([C@H](C)CO)C[C@H]2C)cc1`, the relative growth is inactive: 1.02.
Under `N=C(N)NCCC[C@@H](NC(=O)[C@@H]1CCCN1C(=O)[C@H]1CSSCCC(=O)N[C@@H](Cc2ccc(O)cc2)C(=O)N[C@@H](Cc2ccccc2)C(=O)N[C@@H](CCC(N)=O)C(=O)N[C@@H](CC(N)=O)C(=O)N1)C(=O)NCC(N)=O` stands inactive: 1.01; under `C[C@@H]1CN([C@@H](C)CO)C(=O)Cc2cc(NS(=O)(=O)c3ccccc3)ccc2O[C@H]1CN(C)S(=O)(=O)c1cn(C)cn1`, inactive: 1.
Under `Cc1noc(C)c1NC(=O)N(C)C[C@@H]1Oc2ccc(NC(=O)c3ccncc3)cc2CC(=O)N([C@@H](C)CO)C[C@@H]1C` stands inactive: 1.01; under `O=C(NO)c1ccc(C(=O)N/N=C/[C@H](O)[C@H](O)[C@@H](O)[C@@H](O)CO)cc1`, inactive: 0.999.
As for `C[C@H](CO)N1C[C@H](C)[C@@H](CN(C)Cc2ccc(Cl)c(Cl)c2)Oc2c(NC(=O)Nc3ccc4c(c3)OCO4)cccc2C1=O`, the relative growth was inactive: 1.02.
Then `CC1CC(OC(=O)c2ccccc2O)CC(C)(C)C1` (centres undefined), with inactive: 1; and `CO/N=[N+](\[O-])N(C)C[C@@H](C)O`, with inactive: 1.02.
Under `C[C@H]1CN([C@@H](C)CO)C(=O)Cc2cc(NC(=O)c3ccncc3)ccc2O[C@@H]1CN(C)Cc1ccc2c(c1)OCO2` stands inactive: 0.998; under `C[C@H](CO)N1C[C@H](C)[C@@H](CN(C)C(=O)Nc2ccc(F)cc2)Oc2ccc(NC(=O)CCN3CCOCC3)cc2C1=O`, inactive: 0.993; under `Cc1ccc(S(=O)(=O)N(C)C[C@H]2OCCCC[C@@H](C)Oc3ccc(NC(=O)C4CCCCC4)cc3C(=O)N([C@@H](C)CO)C[C@H]2C)cc1`, inactive: 1.02.
As for `O=C(C[C@H]1CC[C@@H](NC(=O)c2cccnc2)[C@H](CO)O1)NCCN1CCCCC1`, the relative growth is inactive: 1.
Then `C[C@@H]1CN([C@@H](C)CO)C(=O)CCCn2nncc2CO[C@@H]1CN(C)Cc1ccc2c(c1)OCCN2C`, with inactive: 1.01.
In the case of `COc1ccc(CN(C)C[C@H]2Oc3c(NC(=O)Nc4ccc(C(F)(F)F)cc4)cccc3C(=O)N([C@@H](C)CO)C[C@H]2C)cc1`, the relative growth is inactive: 0.892.
Then `C[C@H](CO)N1C[C@H](C)[C@@H](CN(C)C(=O)Nc2ccc(C(F)(F)F)cc2)OCCCC[C@H](C)Oc2ccc(NS(=O)(=O)c3ccc(F)cc3)cc2C1=O`, with inactive: 1.01.
Under `COc1ccc(S(=O)(=O)N(C)C[C@H]2Oc3ccc(NC(=O)Cn4cnnn4)cc3C(=O)N([C@H](C)CO)C[C@H]2C)cc1` stands inactive: 0.999.
